The record followed here is publication PMC6484121, “Unraveling the subtleties of β-(1→3)-glucan phosphorylase specificity in the GH94, GH149, and GH161 glycoside hydrolase families” (The Journal of Biological Chemistry, 2019).

The target in the test is T1, TaCDP (Thermosipho africanus, UniProt B7IED6).
T1 construct: gene THA_1941
T1 sequence (B7IED6 1-1019): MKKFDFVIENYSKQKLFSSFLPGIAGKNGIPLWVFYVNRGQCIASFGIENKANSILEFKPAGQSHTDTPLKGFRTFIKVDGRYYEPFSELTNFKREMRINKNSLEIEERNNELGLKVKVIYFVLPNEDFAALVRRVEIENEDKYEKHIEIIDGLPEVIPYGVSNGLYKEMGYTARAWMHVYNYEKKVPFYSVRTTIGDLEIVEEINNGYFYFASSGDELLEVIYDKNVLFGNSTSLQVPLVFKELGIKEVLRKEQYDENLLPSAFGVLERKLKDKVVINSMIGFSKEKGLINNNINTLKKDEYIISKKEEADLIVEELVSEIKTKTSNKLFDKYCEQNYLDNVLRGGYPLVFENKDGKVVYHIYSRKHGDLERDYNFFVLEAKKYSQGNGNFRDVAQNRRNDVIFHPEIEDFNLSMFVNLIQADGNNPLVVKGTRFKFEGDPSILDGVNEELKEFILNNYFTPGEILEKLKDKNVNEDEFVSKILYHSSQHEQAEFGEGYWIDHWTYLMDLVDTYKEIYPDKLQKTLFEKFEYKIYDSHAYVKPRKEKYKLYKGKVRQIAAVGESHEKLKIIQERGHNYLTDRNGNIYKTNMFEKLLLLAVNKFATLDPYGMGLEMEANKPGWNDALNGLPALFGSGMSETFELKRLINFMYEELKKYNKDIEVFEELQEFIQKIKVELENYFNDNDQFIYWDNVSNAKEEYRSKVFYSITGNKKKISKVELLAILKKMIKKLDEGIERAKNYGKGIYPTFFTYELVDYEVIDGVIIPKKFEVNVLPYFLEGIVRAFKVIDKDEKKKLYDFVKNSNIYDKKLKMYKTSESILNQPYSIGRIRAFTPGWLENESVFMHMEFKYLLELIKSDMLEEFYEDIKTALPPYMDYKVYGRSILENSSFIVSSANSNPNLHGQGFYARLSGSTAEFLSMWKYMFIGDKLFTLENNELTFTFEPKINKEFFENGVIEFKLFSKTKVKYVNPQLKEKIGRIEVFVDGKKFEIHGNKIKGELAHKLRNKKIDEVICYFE
The test is described as follows: TLC of phosphorolysis. Conditions: 20 mM laminaritriose, 10 mM Pi, 100 mM HEPES pH 7.2, 37 °C, 12 h.

`OC[C@H]1O[C@@H](O[C@@H]2[C@@H](O)[C@H](O[C@H]3[C@H](O)[C@@H](CO)OC(O)[C@@H]3O)O[C@H](CO)[C@H]2O)[C@H](O)[C@@H](O)[C@@H]1O` (stereo partly shown) [G3, laminaritriose]: the TLC of phosphorolysis result is listed as “This showed that TaCDP was active exclusively on laminaritriose”.
